The list shows a part of the results. Sequences were assembled here from the parent chain. Inactive controls read about 0.05.
B1: TEV protease; numbered along this chain (parent)
chain: MGESLFKGPRDYNPISSSICHLTNESDGHTTSLYGIGFGPFIITNKHLFRRNNGTLVVQSLHGVFKVKDTTTLQQHLVDGRDMIIIRMPKDFPPFPQKLKFREPQREERICLVTTNFQTKSMSSMVSDTSCTFPSGDGIFWKHWIQTKDGQCGSPLVSTRDGFIVGIHSASNFTNTNNYFTSVPKNFMELLTNQEAQQWVSGWRLNADSVLWGGHKVFMVKPEEPFQPVKEATQL

Variants of: B1
Assay: raw area under fraction-flipped curve 0-4 h after induction (AUC4h, not background-subtracted), DNA-recorder readout of cleavage of the substrate (dimensionless); higher = more cleavage of the substrate by the protease variant
Conditions: temperature: 34 °C; time window: 0-4 h after rhamnose induction
Procedure: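 In vivo DNA recorder in E. coli TOP10(DE3) ΔrhaA at 34 °C. Each TEVp single-site mutant (parent TEVp 0) is paired with a single-site variant of the 7-mer TEVs (canonical ENLYFQ|S). The substrate sits between flexible linkers in a Bxb1-sfGFP-TEVs-SsrA fusion, so cleavage stabilises Bxb1 and speeds flipping of a recombination array, read by NGS. The value is the raw area under the fraction-flipped curve over 0-4 h after rhamnose induction (AUC4h), with ≥20 reads per time point. It is not background-subtracted; inactive controls average about 0.047.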
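Further: Bxb1 expression induced with 0.2% (w/v) L-rhamnose at OD600 near 0.5, cultures sampled hourly, flipped fraction per protease–substrate barcode pair counted by paired-end Illumina sequencing.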

Variant	area with substrate ENAYFQS	area with substrate ENDYFQS	area with substrate ENEYFQS	area with substrate ENGYFQS	area with substrate ENHYFQS	area with substrate ENIYFQS	area with substrate ENNYFQS	area with substrate ENQYFQS	area with substrate ENSYFQS	area with substrate ENTYFQS	area with substrate ENYYFQS	area with substrate ENCYFQS	area with substrate ENKYFQS	area with substrate ENVYFQS	area with substrate ENWYFQS	area with substrate ENMYFQS	area with substrate ENRYFQS	area with substrate ENFYFQS	area with substrate ENPYFQS
N193W	0.0423	0.0711	0.0677	0.0585	0.0754	0.0714	0.1	0.0587	0.0816	0.0568	0.0598								
L205R	0.0622	0.0588	0.0581	0.0876	0.0588	0.0645	0.0664	0.0608	0.0585	0.0636		0.0639	0.0676	0.0625	0.0713				
G214Q	0.0599	0.0848							0.0666			0.0603		0.0474					
S201V	0.0563		0.0866	0.0647		0.0854	0.0579	0.05		0.0528	0.0808	0.0535	0.058			0.0971	0.0528		
K216W	0.0606	0.0508	0.0628		0.0646	0.0887		0.084	0.0565	0.0511	0.0603	0.0733	0.0496	0.068		0.0763	0.0584	0.074	0.0543
L190S	0.0551	0.0681	0.0601		0.0616	0.0962	0.04	0.0694	0.0661		0.0475	0.0654		0.0366			0.0696		0.0533
L190Q	0.0649	0.0748		0.0613		0.0823							0.0768	0.083			0.0733		0.0541
L190E	0.0525	0.0588	0.0535	0.0632			0.0641	0.0589	0.05	0.0615	0.0507	0.058	0.067					0.0707	0.0354
M219P	0.0513	0.0581	0.0667	0.0636		0.0623		0.0653	0.0584	0.0563	0.0761	0.0616		0.053	0.051			0.0734	0.0574
V220T	0.0592	0.0412		0.0453			0.0409					0.0764					0.0726	0.0615	
V220L	0.0604	0.069	0.0588	0.067	0.0639		0.0629	0.0538	0.0709	0.058		0.0581		0.0715		0.0701	0.0493		0.0701
V220Y	0.0719		0.062	0.0738		0.105		0.0568	0.0552	0.0457		0.0518	0.0646	0.0768				0.0643	0.0786
F187W	0.0927			0.0584			0.0556	0.0492	0.0592	0.0597		0.0631	0.0532		0.0066	0.0782	0.0618	0.0539	0.0488
W203L	0.0558	0.0506	0.062	0.0617			0.0554		0.0586	0.0628		0.0669		0.0517					0.0529
W203K	0.0517	0.0574	0.058	0.0649	0.0691	0.0635	0.0617	0.0838	0.0704	0.0574		0.0663	0.051	0.0636		0.0596	0.0527		0.0559
